Data on 58 compounds can be found in paper PMC4336329 (PLoS ONE, 2015).

The whole screen tested about 310,000 compounds, of which about 14,000 (4.5%) showed an effect of 50% or more. The effect is printed as a negative number. This is one part of the list.
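Further: peak tail current of the secondary pulse compared with the same well before compound.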

This assay deals with human ether-à-go-go-related gene (hERG) potassium channel (human, UniProt Q12809). As to the kind of experiment: primary screen, population patch clamp on CHO cells stably expressing hERG.
Sequence of human ether-à-go-go-related gene (hERG) potassium channel (Q12809 whole entry, looked up): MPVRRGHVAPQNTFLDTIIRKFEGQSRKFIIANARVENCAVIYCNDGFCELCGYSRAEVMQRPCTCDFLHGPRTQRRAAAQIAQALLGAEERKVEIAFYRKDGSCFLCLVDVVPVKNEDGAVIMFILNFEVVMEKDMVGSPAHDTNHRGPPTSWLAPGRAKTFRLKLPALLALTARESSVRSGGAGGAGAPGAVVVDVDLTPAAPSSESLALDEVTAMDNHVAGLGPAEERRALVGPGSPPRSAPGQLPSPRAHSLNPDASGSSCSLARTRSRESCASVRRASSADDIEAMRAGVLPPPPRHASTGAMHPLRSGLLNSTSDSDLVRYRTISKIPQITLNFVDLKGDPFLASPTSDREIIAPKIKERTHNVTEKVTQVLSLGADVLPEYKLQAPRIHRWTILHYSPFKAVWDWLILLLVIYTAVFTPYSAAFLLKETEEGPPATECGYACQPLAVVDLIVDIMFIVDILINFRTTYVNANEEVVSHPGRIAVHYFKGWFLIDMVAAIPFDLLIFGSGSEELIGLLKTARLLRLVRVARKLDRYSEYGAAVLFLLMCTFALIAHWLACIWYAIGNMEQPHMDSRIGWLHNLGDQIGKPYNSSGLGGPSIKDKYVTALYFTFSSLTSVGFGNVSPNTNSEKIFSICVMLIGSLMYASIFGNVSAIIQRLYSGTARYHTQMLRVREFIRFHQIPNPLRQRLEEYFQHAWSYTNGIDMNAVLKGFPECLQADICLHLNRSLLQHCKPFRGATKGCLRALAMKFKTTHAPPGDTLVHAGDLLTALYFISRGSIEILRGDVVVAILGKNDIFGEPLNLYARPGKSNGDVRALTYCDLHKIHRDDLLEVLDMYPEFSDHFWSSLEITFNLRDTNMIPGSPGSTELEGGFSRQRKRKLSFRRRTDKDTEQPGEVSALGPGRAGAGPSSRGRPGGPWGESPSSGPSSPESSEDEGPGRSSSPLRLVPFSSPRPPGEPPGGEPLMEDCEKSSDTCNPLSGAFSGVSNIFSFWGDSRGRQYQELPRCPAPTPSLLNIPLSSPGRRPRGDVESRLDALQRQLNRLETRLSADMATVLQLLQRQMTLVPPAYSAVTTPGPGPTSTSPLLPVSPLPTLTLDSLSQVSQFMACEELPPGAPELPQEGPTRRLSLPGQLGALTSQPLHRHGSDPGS
In the case of `Oc1ccc(Br)cc1-c1n[nH]c(=S)n1Cc1ccccc1`, the “hERG current change (%, negative = inhibition) at 10uM” value was -0.0951%. Turning to `Cc1cc(Cl)nc(SCC(=O)c2ccccc2)n1`, the “hERG current change (%, negative = inhibition) at 10uM” value worked out at 3.05%. With `CCC(C(=O)Nc1cccc(OC)c1)n1nc(C)c2c(C)n(-c3ccccc3)nc2c1=O` (stereo not shown), the “hERG current change (%, negative = inhibition) at 10uM” value was -7.35%.

`CCOC(=O)c1c(-c2ccc(C)o2)csc1NC(=O)CN1CCOCC1`: the “hERG current change (%, negative = inhibition) at 10uM” value is given as 2.47%. Turning to `CCOC(=O)N1CCC(NCCNC(=O)c2ccc(F)cc2)CC1.Cl`, the “hERG current change (%, negative = inhibition) at 10uM” value is on record as -25.2%. `CCc1c(C)nc(N2CCN(Cc3ccccc3)CC2)[nH]c1=O`: the “hERG current change (%, negative = inhibition) at 10uM” value worked out at 8.65%. With `CC1(C)Oc2ccc3ccc(=O)oc3c2/C(=C/NCCO)C1=O` the figure was 5.11%. Turning to `Cc1ccc(C(=O)O/N=C(\N)c2ccc(Br)cc2)cc1C`, the “hERG current change (%, negative = inhibition) at 10uM” value turned out to be 20.9%. Regarding `CCOC(=O)N1CCN(C(=O)CCSc2ccccc2)CC1`, the “hERG current change (%, negative = inhibition) at 10uM” value is -4.37%. For the compound `CCOc1ccc(CCNC(=O)COC(=O)c2cccc(S(=O)(=O)N3CCOCC3)c2)cc1OCC`, the “hERG current change (%, negative = inhibition) at 10uM” value is -8.57%. To `COc1ccccc1NC(=O)C(C)OC(=O)c1cc2ccccc2[nH]1` (stereo not shown) belongs -5.21%. Consider `Cc1cc(CNC(=O)C2CCC(=O)N(CCc3cccc(F)c3)C2)on1` (stereo not shown), for which the “hERG current change (%, negative = inhibition) at 10uM” value came out at 12.3%. With `O=C(NNC(=O)c1cccnc1SCc1cccc([N+](=O)[O-])c1)c1ccccn1`, the “hERG current change (%, negative = inhibition) at 10uM” value is given as -3.49%. Turning to `CC(C)Oc1ccc(C(=O)NCC(=O)O)cc1`, the “hERG current change (%, negative = inhibition) at 10uM” value was 20.8%. With `CCOc1ccc(NC(=NCc2ccc3c(c2)OCO3)SC2CC(=O)N(c3ccccc3)C2=O)cc1` (stereo not shown) the figure was 10.1%; with `O=C(C1CCCN1S(=O)(=O)c1cccc2nsnc12)N1CCN(c2ccccc2)CC1` (stereo not shown), -69.5%. Turning to `C[C@@H]1NC(=O)[C@@]2(C)[C@@H](c3ccccc3)[C@H]3COc4ccccc4[C@@H]3N2C1=O`, the “hERG current change (%, negative = inhibition) at 10uM” value is reported as -9.03%. To `COCC1CCN(C(=O)c2cc(COc3ccccc3SC)on2)C1` (stereo not shown) belongs -33.9%. Regarding `CCOc1ccc(CCNC(=O)C2CCN(S(=O)(=O)c3ccc(C)cc3)CC2)cc1OCC`, the “hERG current change (%, negative = inhibition) at 10uM” value is given as -2.33%. To `CC(C)C(C)NC(=O)CSc1nnc(-c2c[nH]c3ccccc23)o1` (stereo not shown) belongs 7.76%.

In the case of `CC(=O)c1c(C)[nH]c(C(=O)COC(=O)c2cc(C)oc2C)c1C`, the “hERG current change (%, negative = inhibition) at 10uM” value was -11.5%. Turning to `O=C(NCC(=O)N1CCCC(C(F)(F)F)C1)c1ccco1` (stereo not shown), the “hERG current change (%, negative = inhibition) at 10uM” value was determined as 10.3%. For `COc1ccc(C)cc1NC(=O)CN(C)S(=O)(=O)c1cc(C)ccc1OC`, the “hERG current change (%, negative = inhibition) at 10uM” value is listed as -17.6%. To `CNS(=O)(=O)c1cc(OCC(N)=O)c(C)cc1Cl` belongs 16.8%. To `O=C1CN(C(=O)c2cc3ccccc3o2)c2ccccc2N1` belongs -9.48%; to `COc1ccccc1NC(=O)C(Cc1ccc(Cl)cc1)c1nn[nH]n1` (stereo not shown), 3.7%. Take `COC(=O)/C=c1\sc2ncnn2c1=O`: the “hERG current change (%, negative = inhibition) at 10uM” value is listed as 3.63%. `CNS(=O)(=O)c1ccc(C(=O)NCC(=O)NCCc2ccc3c(c2)OCCO3)cc1`: the “hERG current change (%, negative = inhibition) at 10uM” value stood at 12.9%. Regarding `O=C(COc1ccccc1)NCC(=O)N/N=C/C=C/c1ccccc1`, the “hERG current change (%, negative = inhibition) at 10uM” value turned out to be 10.2%. On to `Cc1cc(OCC(=O)NCCCN2CCCC2=O)c2c(C)cc(=O)oc2c1`, for which the “hERG current change (%, negative = inhibition) at 10uM” value is 16.1%. For `COc1ccc(NC(=S)NCc2ccccc2Cl)c(OC)c1`, the “hERG current change (%, negative = inhibition) at 10uM” value was found to be 14.5%. To `CCc1noc(C)c1C(=O)NNC(=O)c1ccc(F)cc1` belongs 19.2%. Take `O=C(CC(=O)N/N=C/c1c(Cl)cccc1Cl)NCc1cccnc1`: the “hERG current change (%, negative = inhibition) at 10uM” value was found to be 4.38%.

Consider `COc1ccccc1/C=C/C=N/n1c(C)nnc1C`, for which the “hERG current change (%, negative = inhibition) at 10uM” value came out at 26.6%. With `O=C(NC(=S)Nc1cccc2[nH]ncc12)c1ccccc1`, the “hERG current change (%, negative = inhibition) at 10uM” value turned out to be 10.8%. As to `COCCN=c1scc(-c2ccccc2)n1/N=C/c1c[nH]c2ccccc12`, the “hERG current change (%, negative = inhibition) at 10uM” value is recorded as 18.7%. To `O=C(NC1CCCC1)C(c1ccncc1)N(C(=O)c1csnn1)c1ccc(F)cc1` (stereo not shown) belongs 20.3%; to `Cc1ccccc1-c1nn(-c2ccc(F)cc2F)cc1CNC1CC1`, 4.39%. For `Cc1ccc(CC(=O)Nc2ncc([N+](=O)[O-])s2)cc1`, the “hERG current change (%, negative = inhibition) at 10uM” value worked out at 32.5%. With `CCn1nnnc1SCC(=O)Nc1nc(-c2cccs2)cs1` the figure was 3.04%; with `Cc1nc(C)c(C(=O)O)c(-c2ccsc2)c1C(=O)O`, 4.65%.

Take `COC(=O)/C=C/c1ccc(OC(=O)c2ccncc2)cc1`: the “hERG current change (%, negative = inhibition) at 10uM” value is 9.12%. To `Oc1ccc(-c2nc(=S)[nH][nH]2)cc1` belongs 23.5%. On to `Cc1c(/C=N/n2cnnc2)c2ccccc2n1CCOc1ccccc1`, for which the “hERG current change (%, negative = inhibition) at 10uM” value is -6.78%. As to `COc1ccc(N(CC(=O)NC2CCCC2)C(=O)c2ccc(C)s2)c(OC)c1`, the “hERG current change (%, negative = inhibition) at 10uM” value is listed as -14.5%. Take `O=C(c1ccc(Oc2ccc(C(F)(F)F)cc2[N+](=O)[O-])cc1)N1CCOCC1`: the “hERG current change (%, negative = inhibition) at 10uM” value is -37.9%. `CCOC(=O)c1cnc2c(ccc3ccccc32)c1NCCCN(C)C`: the “hERG current change (%, negative = inhibition) at 10uM” value was -47%.

As for `COc1cccc(OCC(=O)Nc2cc(Cl)ccc2Oc2ccccc2)c1`, the “hERG current change (%, negative = inhibition) at 10uM” value was found to be 15.3%.

Consider `O=C1NC(=O)C(Cc2cccc(Oc3ccccc3)c2)S1` (stereo not shown), for which the “hERG current change (%, negative = inhibition) at 10uM” value amounted to 18.6%. To `Nc1nc(C(=O)N2CCOCC2)nn1S(=O)(=O)c1ccc(Cl)cc1` belongs -0.481%; to `O=C(NCC(=O)N1CCc2ccccc2C1)c1ccc(Cl)cc1Cl`, -41.2%; to `Cc1nnsc1C(=O)Nc1ccc(S(=O)(=O)N2CCCCC2C)cc1` (stereo not shown), 0.606%.

With `O=c1[nH]n(Cc2ccccc2)c2ccccc12`, the “hERG current change (%, negative = inhibition) at 10uM” value is reported as 6.97%.

Consider `O=C(CSc1nnc(-c2ccncc2)o1)NC1C2CC3CC(C2)CC1C3` (stereo not shown), for which the “hERG current change (%, negative = inhibition) at 10uM” value is -20.7%.

For `COc1ccccc1C(CNc1nc(C(F)(F)F)nc2ccccc12)N(C)C` (stereo not shown), the “hERG current change (%, negative = inhibition) at 10uM” value is -29%. Consider `O=C(CN1CCN(c2ccccc2F)CC1)NC(=O)NCc1ccco1`, for which the “hERG current change (%, negative = inhibition) at 10uM” value amounted to 12.1%.

As to `COC(=O)c1nnn(CC(=O)NC(=O)Nc2ccc(F)cc2)c1C(=O)OC`, the “hERG current change (%, negative = inhibition) at 10uM” value is 1.97%.

As to `O=C(Nc1ccc(Cl)cc1)C(c1ccccc1)N1CCOCC1` (stereo not shown), the “hERG current change (%, negative = inhibition) at 10uM” value is reported as -27.6%.
